Patent publication US20240360219A1 (FBD BIOLOGICS, published 2024)
Each block holds one binder with its values, some of them ahead of it.

What was measured:
human TGFβ2 [1] = molecular target: T1, human TGFβ2 (human, UniProt P61812 303-414); assay: ELISA, plate coated with 1 µg/ml human TGFβ2, HRP secondary antibody, OD 450 nm
T1 construct: also called hTGFβ2
T1 sequence (looked up): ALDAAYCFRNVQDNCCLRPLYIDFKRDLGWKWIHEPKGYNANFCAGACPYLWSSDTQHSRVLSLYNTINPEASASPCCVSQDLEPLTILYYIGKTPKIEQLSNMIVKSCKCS

human TGFβ3 = molecular target: T2, human TGFβ3 (human, UniProt P10600 301-412); assay: ELISA, plate coated with 1 µg/ml human TGFβ3, HRP secondary antibody, OD 450 nm
T2 construct: also called hTGFβ3
T2 sequence (looked up): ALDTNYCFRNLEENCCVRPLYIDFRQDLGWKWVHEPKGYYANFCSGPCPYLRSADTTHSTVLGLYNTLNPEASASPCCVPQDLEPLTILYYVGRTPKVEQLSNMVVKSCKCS

human PD-L1 = molecular target: T3, human PD-L1 (human, UniProt Q9NZQ7); assay: flow cytometry on a mixture of CFSE-labelled OE19 and violet-labelled PD-L1 tf OE19 cells, share of each cell type among PE-positive cells
T3 construct: whole, on cells; also called PDL1 tf CHO-S; PD-L1 tf OE19

human TGFβ2 [2] = molecular target: T1, human TGFβ2; assay: ELISA, plate coated with 1 µg/ml human TGFβ2, HRP secondary antibody, OD 450 nm; the printed EC50 lies above the highest concentration shown (500 nM)

human PD-L1, sequence (Q9NZQ7 19-290): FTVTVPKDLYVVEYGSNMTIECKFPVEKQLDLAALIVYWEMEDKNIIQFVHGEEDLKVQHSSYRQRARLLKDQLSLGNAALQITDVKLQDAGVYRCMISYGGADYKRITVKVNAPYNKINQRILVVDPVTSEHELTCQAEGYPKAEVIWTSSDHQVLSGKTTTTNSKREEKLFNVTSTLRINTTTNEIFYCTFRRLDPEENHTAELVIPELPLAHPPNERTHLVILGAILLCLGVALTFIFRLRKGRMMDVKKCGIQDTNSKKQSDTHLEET

binding result (human TGFβ2 [1]): no binding (tested: 500 nM) | binding result (human PD-L1): no binding (tested: 32 pM)
B1: SIRPα_G4 (Fc fusion)
chain: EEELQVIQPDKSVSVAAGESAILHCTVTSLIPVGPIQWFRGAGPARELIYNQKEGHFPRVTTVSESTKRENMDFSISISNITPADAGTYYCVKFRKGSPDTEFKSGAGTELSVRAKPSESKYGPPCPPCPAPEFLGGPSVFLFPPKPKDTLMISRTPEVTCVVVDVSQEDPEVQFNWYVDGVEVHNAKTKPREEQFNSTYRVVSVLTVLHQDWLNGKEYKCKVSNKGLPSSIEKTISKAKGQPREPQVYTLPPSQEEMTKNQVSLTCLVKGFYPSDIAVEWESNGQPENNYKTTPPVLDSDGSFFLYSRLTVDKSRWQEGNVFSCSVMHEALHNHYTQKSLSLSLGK
notes: Control protein; also called hSIRPα-G4Fc-wt (Trillium); TTI-622
binding result (human TGFβ3): no binding (tested: about 50 nM (last point on the axis))

EC50 (human TGFβ3): 0.63 nM | EC50 (human TGFβ2 [2]): 990 nM
B2: IgG4-TGFβ trap (Fc fusion)
chain: [human IgG4 Fc with S228P (EU numbers) not shown]AGGGGSGGGGSGGGGSGGGGSGIPPHVQKSVNNDMIVTDNNGAVKFPQLCKFCDVRFSTCDNQKSCMSNCSITSICEKPQEVCVAVWRKNDENITLETVCHDPKLPYHDFILEDAASPKCIMKEKKKPGETFFMCSCSSDECNDNIIFSEEYNTSNPD
notes: Control protein for the HCB301 proteins
